Assay results published in the RNAGym collection of RNA variant scans (doi:10.7554/elife.90254).
Read counts are not given, so values of variants with three or more changes are uncertain.

B1: LINE1-mini (parent)
chain: GGCAGAGCUCAACACAGCGUGGCAAAGUGGCUGUGGCUAGACUGCC

Variants of: B1
Test: self-cleavage, relative activity (ratio to wild type); higher = more cleavage; in vitro, sequencing; the parent is a self-cleaving ribozyme

Variant	self-cleavage
G22U C23U U43C	0.17
C23A G44C C45G	0.05
C23G A25C G29C U34C G35U	0.02
G22U C31A U38G	0.01
G22U G35C C46U	0.04
C23U C31G G35A C45U	0.07
G22U C23A C45U	1.81
G22U C31U G36A	0.23
C23G U32G C42U	0.04
G22U G35U A41G	0.21
C23A G29U U34G	0.32
C23A U38G U43A	0.01
C23G G40C C42U	0.01
G22U A25G A39C	0.31
C23G G27A G30A	0.68
C23U G29A U43A	0.71
C23U G44A C46U	0.24
C23G G33U G36C	0.02
C23U C31U C46U	0.34
C23U C31U C46A	0.52
C23U C31A G40C C42G G44C	0.01

Variant	self-cleavage
C23G G33A A39C G40A G44A C46U	0.04
C23U U28C G33U	0.07
A24C A26U G30A C42U	0.09
C23U G33C G40C U43A	0.01
C23A G36C A41U	0.23
C23A G29A C42A	0.18
C23A G29A C42U	0.74
C23G U38A C45G	0.09
C23U A24C C37A G40U U43G	0.04
C23U U34A C42G	0.02
C23A A26U C46A	1.05
C23G U43A C46G	0.05
G22U G36U G40U C42A C45A	0.1
C23A A26C U38G	0.02
G22U G36C C37U	0.01
G22U C45A C46U	0.24
G22U A26U G35A	0.04
C23G G36C G44U	0
C23A A25U U34C U43A	0.03
G22U C23A A26G	0.61
G22U C23A A26C	1.1

Variant	self-cleavage
G22U A25U G29C	2
G22U C23U G27U G33C	0.06
C23G C37G C45A	0.01
C23G A24C C31U C46G	0.01
G22U U28A C37U A41U	0.04
C23U A25U U43C C46G	0.04
C23G G33A U34A	0.04
C23A A39G A41U	0.08
C23U A26U G40U	0.02
G22U G27A G33U	1.08
C23U A26G A41C	0.04
C23G U28A C31U A41U U43C	0.04
C23A A24G G33C	0.03
G22U U32G C45U	0.23
C23G G27C C42U	0.16
G22U A24U U43C	0
C23U G36U U43C	0.06
A24C A41C C45G	0.06
C23A G29A G40C C42U U43C	0.12
C23A G40U C46U	0.03
C23A A26G C31U	0.05

Variant	self-cleavage
A24C A26G G30U G44A	0.08
C23U G35A G36A	0.09
C23U G29U C37A A41C C45U	0.01
G22U G29A C42A	0.2
C23A G40U C42A	0.06
C23G G27U U28A C37U	0.02
C23A U28G U32A	0.08
C23U A26U C31G C45U	0.16
G22U A26G U28G C37U G40C C46G	0.13
C23U G30U G33A	0.05
C23A A24G G27U C37A	0.01
C23G A24G C46U	0.42
G22U A26C C46A	0.81
C23A A26G U32C U38G C46G	0.07
C23U C31U G36A A41U	0.12
C23A G27U U38G U43C	0.01
C23A U28A C37U A41U	0.04
C23U G33C C46U	0.03
G22U G36U A41C	0.02
G22U G33A A41C C45G	0.08
C23G C31A G33A A39C C45U	0.08
